Patent US5898069A, “Phosphate assay” (Medical Research Council, priority 1993, dated 1999)

Columns and labels:
Details in all cases: ~5 μM labelled PBP in 10 mM Tris.HCl pH 8.0, 50 μM Pi added
PBP mutant A57C = PBP mutant A57C (Escherichia coli, UniProt P0AG82, A82C)
Method: (§1) Other fluorescent labels were attached in a similar way to PBP mutants, with minor modifications to the procedure, such as the ratio of label to the protein, reaction time, and pH.
(§2) Measurements Absorbance spectra were obtained on a Beckman DU70 spectrophotometer. Fluorescence measurements were obtained on a Farrand Mkl or a SLM 8000 photon counting spectrofluorimeter. Stopped flow experiments were carried out in a HiTech PQ/SF-53 apparatus, with a mercury lamp and HiTech IS-2 software.
(§3) PBP was purified from the periplasm of E. coli strain ANCC75, overexpressing phos in a multicopy plasmid (Morita et al., 1983). A 4-liter culture gave 400-600 mg of PBP with a purity greater than 95% by polyacrylamide gel electrophoresis. The wild-type protein contains no cysteines and so fluorescent groups were attached initially via amines or carboxyls. All attempts to label the wild-type protein with a fluorophore gave at best a 15% fluorescence change on Pi binding, about the same as that observed for the intrinsic tryptophan fluorescence. This is possibly due to relatively non-specific and multiple labeling To ensure that a single label could be attached, mutant PBP proteins were obtained by replacing single residues by cysteine, using oligonucleotide directed mutagenesis. The positions were chosen such that the residues were at the edge of the Pi -binding cleft described by Luecke & Quiocho (1990). These would be expected to experience a significant change in environment on Pi binding, although the structure is known only for the Pi -bound form of PBP. In addition, the mutated residues were not directly involved in Pi binding as elucidated by Luecke & Quiocho (1990). One combination of mutant (A1297C) and fluorophore (MDCC; FIG. 1) gave a large fluorescence change with Pi, although several closely related fluorophores, including CPM and DACM, gave much smaller, changes. Most other labeled mutants were not tested to determine whether the lack of Pi sensitivity is because they lacked Pi binding, or because the fluorophore is insensitive to the putative conformation change. Serine 139 is involved in Pi binding (Luecke & Quiocho, 1990), so the labeled S139C mutant PBP might be expected to be deficient in Pi binding: this labeled mutant was therefore used as a null control. The A197C mutant was overproduced to the same extent as wild-type protein, so large amounts of the labeled protein could be obtained.
(§4) The conditions for measurement of fluorescence were ~5 μM
(§5) labelled PBP in 10 mM Tris.HCl pH 8.0, to which 50 μM Pi was
(§6) added. Excitation and emission were at the maximum wavelength. DEM is […]

PBP mutant A9C = PBP mutant A9C (Escherichia coli, UniProt P0AG82, A34C)
Method: as §1, §2, §3, §4, §5, §6

PBP mutant G140C = PBP mutant G140C (Escherichia coli, UniProt P0AG82, G165C)
Method: as §1, §2, §3, §4, §5, §6

PBP mutant S139C = PBP mutant S139C (Escherichia coli, UniProt P0AG82, S164C)
Method: as §1, §2, §3, §4, §5, §6

PBP mutant A197C = PBP mutant A197C (Escherichia coli, UniProt P0AG82, A222C)
Method: Labelling A197C PBP with 7-diethylamino-3-[4'-(1-maleimidyl)phenyl]-4-methylcoumarin (CPM) 100 μM A197C and 400 μM CPM were incubated in 8 ml of 10 mH Tris-HCl, pH 8.1 at room temperature for 4 h on an end-over-end mixer. The protein was purified on a Biogel P4 gel filtration column (15×70 cm) eluting with 10 mM Tris.HCl pH 8.0. The protein was filtered through a 0.2μm pore size membrane filter (Acrodisc 13, Gelman), and loaded onto a 10 ml Q-Sepharose column, equilibrated with 10 mM Tris.HCl, pH 7.6, 1 mM MgCl2. After washing, the protein was eluted by a 200 mL gradient of 0-50 mM NaCl in this buffer. The purity of the labelled protein was checked by its fluorescence change with Pi, by its absorbance spectrum and by SDS gel electrophoresis with both Coomassie blue staining and fluorescence visualisation. The yield was typically about 50% of the starting material.
Labelling A197C PBP with N-[2-(1-maleimidyl)ethyl]-7-diethylaminocoumarin-3-carboxamide (MDCC) 100 μM A197C and 500 μM MDCC (from a 25 mM solution in dimethylformamaide) were incubated in 8 ml of 20 mM Tris-HCl, pH 8.1 at room temperature for 4 h on an end-over-end mixer. The protein was filtered through a 0.2 μm pore size membrane filter (Acrodisc 13, Gelman) and purified on a Biogel P4 gel filtration column (1.5×70 cm) eluting with mM Tris-HCl, pH 8.0. The protein was loaded onto a 25 ml Q-Sepharose column, equilibrated with 10 mM Tris-HCl, pH 7.6, 1 mM MgCl2. After washing, the protein was eluted by a 200 mL gradient of 0-50 mM NaCl in this buffers. The purity of the labeled protein was checked by its fluorescence change with Pi, by its absorbance spectrum and by SDS gel electrophoresis with both Coomassie blue staining and fluorescence visualization. The yield was typically ~50% of the starting material. The concentration of the labeled protein was determined by the absorbance at 280 nm, after correcting for the absorbance due to the label (0.164 of that at 430 nm). The spectrum of the label was assumed to be the same as that determined for the adduct of MDCC with dithiothreitol.
as §2
PBP was purified from the periplasm of E. coli strain ANCC75, overexpressing phos in a multicopy plasmid (Morita et al., 1983). A 4-liter culture gave 400-600 mg of PBP with a purity greater than 95% by polyacrylamide gel electrophoresis. The wild-type protein contains no cysteines and so fluorescent groups were attached initially via amines or carboxyls. All attempts to label the wild-type protein with a fluorophore gave at best a 15% fluorescence change on Pi binding, about the same as that observed for the intrinsic tryptophan fluorescence. This is possibly due to relatively non-specific and multiple labeling To ensure that a single label could be attached, mutant PBP proteins were obtained by replacing single residues by cysteine, using oligonucleotide directed mutagenesis. The positions were chosen such that the residues were at the edge of the Pi -binding cleft described by Luecke & Quiocho (1990). […] One combination of mutant (A1297C) and fluorophore (MDCC; FIG. 1) gave a large fluorescence change with Pi, although several closely related fluorophores, including CPM and DACM, gave much smaller, changes. […]

PBP mutant D292C = molecular target: T1, PBP mutant D292C (Escherichia coli, UniProt P0AG82, D317C); format: binding, E. coli
T1 construct: from the Nterminus of the mature protein; made in house; host or cells: E. coli strain ANCC75, plasmid pSN5182/N, periplasm
Source text: (e) Using the Pi mop, the fluorescence change was 65%.

PBP mutant G140C, sequence (P0AG82 26-346 G165C): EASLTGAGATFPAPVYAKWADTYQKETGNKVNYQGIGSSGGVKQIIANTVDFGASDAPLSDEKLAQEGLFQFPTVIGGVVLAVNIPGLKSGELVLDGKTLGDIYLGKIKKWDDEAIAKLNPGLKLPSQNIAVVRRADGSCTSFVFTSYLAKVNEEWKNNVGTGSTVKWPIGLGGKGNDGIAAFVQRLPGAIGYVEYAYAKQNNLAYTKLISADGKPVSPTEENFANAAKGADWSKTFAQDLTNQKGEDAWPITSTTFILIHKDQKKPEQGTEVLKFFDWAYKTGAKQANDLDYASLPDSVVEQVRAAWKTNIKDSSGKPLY
PBP mutant S139C, sequence (P0AG82 26-346 S164C): as the sequence (P0AG82 26-346 G165C) above, with S139C, C140G counted along it
T1 sequence (P0AG82 26-346 D317C): as the sequence (P0AG82 26-346 G165C) above, with C140G, D292C counted along it
PBP mutant A197C, sequence (P0AG82 26-346 A222C): as the sequence (P0AG82 26-346 G165C) above, with C140G, A197C counted along it
PBP mutant A9C, sequence (P0AG82 26-346 A34C): as the sequence (P0AG82 26-346 G165C) above, with A9C, C140G counted along it
PBP mutant A57C, sequence (P0AG82 26-346 A82C): as the sequence (P0AG82 26-346 G165C) above, with A57C, C140G counted along it

SMILES	percent increase in fluorescence on adding Pi (PBP mutant A57C)	percent increase in fluorescence on adding Pi (PBP mutant A9C)	percent increase in fluorescence on adding Pi (PBP mutant G140C)	percent increase in fluorescence on adding Pi (PBP mutant S139C)	percent increase in fluorescence on adding Pi (PBP mutant A197C)	percent increase in fluorescence on adding Pi (PBP mutant D292C)
C=CC(=O)c1ccc2cc(N(C)C)ccc2c1 [Acrylodan]	-3%	10%	0%	-15%	0%	19%
CCN(CC)c1ccc2cc(C(=O)NCCN3C(=O)C=CC3=O)c(=O)oc2c1 [MDCC, N-[2-(1-Maleimidyl)ethyl] 7-diethylaminocoumarin-3-carboxamide]				0%	405%	-2%
O=C1C=CC(=O)N1c1ccc(Nc2ccc3cc(S(=O)(=O)O)ccc3c2)cc1 [MIANS, 2[4(1-maleimidyl)anilino]naphthalene6-sulfonic acid]					20%	21%
CCN(CC)c1ccc2c(C)c(-c3ccc(N4C(=O)C=CC4=O)cc3)c(=O)oc2c1 [CPM, 7-diethylamino-3-[4'-(1-maleimidyl)phenyl]-4-methylcoumarin]	-4%	15%	-10%	0%	65%	
CCN(CC)c1ccc2c(C)c(-c3ccc(N4C(=O)C=CC4=O)cc3)c(=O)oc2c1 [CPM]						-6%
Cc1c(N2C(=O)C=CC2=O)c(=O)oc2cc(N(C)C)ccc12 [DACM, 7dimethylamino-3-(1-maleimidyl)-4-methylcoumarin]				10%	34%	0%
CN(C)c1cccc2c(S(=O)(=O)N3CC3)cccc12 [Dansyl aziridine]		20%	0%			4%
CN(C)c1cccc2c(S(=O)(=O)NCCN3C(=O)C=CC3=O)cccc12 [DEM]		0%	0%	0%		
